According to patent US20120041065A1, “LAURIC ACID DISTILLATE FOR ANIMAL FEED” (CAN TECHNOLOGIES, INC., priority 2010, published 2012):

Tested on: grow-finish pigs
Assay: Fifth study: growth performance of grow-finish pigs fed HLAD, LA or BMD
Conditions: all treatment diets; 86 to 258 lbs
Description: A trial was conducted to evaluate the effect of hydrolyzed lauric acid distillate (HLAD) on growth performance of grow-finish pigs and to evaluate the effectiveness of atypical pen conditions for development of a challenge model. A total of 120 pigs (initial BW: 86 lbs and final BW: 258 lbs) were allotted to one of 6 dietary treatments (10 replicates consisting of five replicates of barrows and five replicates of gilts per treatment with two pigs per replicate). The treatment diets were a 1) control, 2) antibiotic bacitracin methylene disalicylate (BMD), 3) lauric acid (LA) at 0.1%, 4) HLAD at 0.1%, 5) HLAD at 0.2%, and 6) HLAD at 0.4%. Feed intakes and body weights were measured at the end of each of three feeding phase. A challenge of having two pigs per pen along with housing in a dirty room (the room was not cleaned after the previous study was concluded) was used in this trial to see if this could reduce the growth of pigs. The three feeding phases were approximately from 86 lbs to 127 lbs, 127 to 199 lbs, and 199 lbs to 258 lbs. Overall performance (ADG, ADFI, Feed efficiency) and BW at the end of any phase were not affected by diet.

| Molecule | Overall performance (ADG, ADFI, Feed efficiency) and BW at the end of any phase |
| --- | --- |
| CCCCCCCCCCCC(=O)O [LA, lauric acid] | not affected |
| bacitracin methylene disalicylate [BMD] | not affected |
